# Among all 150,000 compounds or so, about 540 (0.36%) showed an effect of 50% or more. The list shows a part of the results.
# Test system: Plasmodium falciparum
# Test: Primary screen in NF54 nanoGlo assay, in single point, at 2uM, 72h; a lower Z score goes with more inhibition
# Assay type: functional, Erythrocyte
# Conditions: timepoint 72 hour
SMILES,% Inhibition,Z score
Cc1cc(-c2nc(C3(C)CCC3)no2)cnn1,-8%,1.5
O=C(c1cnccn1)N(Cc1ccco1)c1ccc(Cl)cc1,3%,-0.64
Cc1cc(C)cc(CN2CCCN(c3ccc(C)cc3NC(=O)Cc3ccc(F)cc3)C2=O)c1,39%,-5.23
CCc1sc(C(C)NS(=O)(=O)C(C#N)CC)cc1C (stereo unspecified),3%,-0.49
Cc1nccn1C[C@H]1CCCN(c2nccnc2C#N)C1,5%,-0.91
CCC(NS(=O)(=O)CCOc1ccccc1F)[C@H]1C[C@H](O)C1 (stereo partly specified),3%,-0.47
CCN(CC(=O)NCC1CCCCC1)CC(=O)Nc1ccc(NC(C)=O)cc1,-6%,0.77
CCC(CC)NC(=O)Nc1ccc(Cl)cc1Cl,-3%,0.42
c1c[nH]c(-c2ccc(CN3CCCC3)s2)n1,0%,-0.03
CC(C)c1ccc(CN2CCn3nc(CNc4cnccn4)cc3C2)cc1,-7%,0.85
Cc1noc(CCC(=O)N2CC(C)(O)C2)n1,-8%,1.19
CC(C)c1[nH]ccc1C(=O)N[C@@H](C)c1cnn(C)c1,-3%,0.58
O=S(=O)(c1ccccc1)c1ccc(-c2nnc(-c3ccccc3Cl)o2)cc1,-8%,1.27
CCOC(=O)c1cc(-c2cccc(NC(=O)c3ccccc3F)c2)n(-c2cccc(C)c2)n1,-8%,1.15
Cc1ccc(F)c(NS(=O)(=O)c2cc3c(=O)[nH]ncn3c2)c1,1%,-0.19
COc1ccc2cc(C(=O)N3CC(n4cccn4)C3)n(C)c2c1,-8%,1.51
O=C(CC(F)(F)F)NCc1noc(Cc2ccccc2)n1,21%,-2.63
CCc1ccccc1NC(=O)N1CCC2(CCO2)CC1,-2%,0.21
Cc1cc(CNCCc2nncn2C(C)C)cc(C)c1OCc1ccccc1Cl,-6%,1.32
O=C(c1ncccc1O)N1CCN(Cc2ccncc2)[C@@H]2CS(=O)(=O)C[C@@H]21,12%,-1.5
O=C([C@@H]1Cc2ccccc2O1)N1CCc2n[nH]cc2C1,7%,-1.19

SMILES,% Inhibition,Z score
COc1cccc(-n2nc(C)c(CCC(=O)N3CCC[C@H]3c3ccc4c(c3)OCCCO4)c2C)c1,0%,0.05
COc1ccccc1OCC(=O)Nc1ccc2c(c1)C(=O)N1CCC[C@H]1C(=O)N2,-13%,1.73
CC(=O)c1ccc(F)c(CCCn2ccnc2)c1,2%,-0.32
O=C(C[C@H](c1cccc(C(F)(F)F)c1)c1cn(Cc2ccccc2)c2ccccc12)NCc1ccccc1,-2%,0.22
CCc1cnc(CNC(=O)N2CCC[C@H]2Cc2ccnn2C)s1,2%,-0.38
Cc1nc2[nH]nc(N)c2c(C)c1C1=CCCCC1,7%,-0.89
Clc1ccc(C2(c3nnc(-c4cc(-c5ccccc5)n[nH]4)o3)CCOCC2)cc1,-3%,0.49
Cc1nonc1CN(C)Cc1cc(-c2cccs2)ccc1OCC(=O)O,-5%,0.92
Cc1cc(NC(=O)N(CCO)C2CC2)no1,-17%,3.36
CCOc1ccc(CCNC(=O)C2CCN(c3ncnc4oc(C)c(C)c34)CC2)cc1OCC,-1%,0.17
O=C(CC1(c2ccccc2F)CC(=O)N(C2CCCC2)C1=O)N(CC1CCC1)CC1CCCO1 (stereo unspecified),-11%,2.07
CCC(C(=O)N1C2C=CCC1CC2)c1ccccc1 (stereo unspecified),-7%,0.87
Cc1nn(C)cc1[C@H]1OCC[C@@H]1NC(=O)Nc1cccc(-c2ncco2)c1C,1%,-0.12
COc1ccc(S(=O)(=O)N(C)Cc2c[nH]nc2C)c2c1CCCC2,-11%,1.44
CC(C)NC(=O)N[C@H]1CO[C@@H](CN2CCC(F)(F)C2)[C@@H]1O,17%,-2.01
CCCN1C(=O)c2ccccc2C(C(=O)N2CCOCC2)C1c1cc(OC)c(OC)c(OC)c1 (stereo unspecified),-12%,1.36
Cn1cncc1-c1cccc(-c2cc[nH]n2)c1,5%,-0.67
Cn1cc(-c2ncnn2CC(F)(F)F)ccc1=O,-22%,2.36
COCC(C)N(C)CC(O)c1ccc(OC(F)(F)F)cc1 (stereo unspecified),-2%,0.27
CC(OCC1CCCO1)C(=O)N1CCCC1(C)C(=O)OC(C)(C)C (stereo unspecified),-7%,1.28
CCOc1cccc(OCC)c2c(C)[n+](-c3ccc(C)cc3)c(C)c1-2,-1%,0.12

SMILES,% Inhibition,Z score
CC(C)Cn1cc(C(=O)OCc2ccc3[nH]nnc3c2)cn1,-8%,1.07
O=C(NCCN1CCOCC1)c1cc2n(n1)CCN(Cc1ccccc1)C2=O,-14%,1.92
COc1ccc(NC(=O)[C@H]2CC[C@H](Cn3cnc4ccccc4c3=O)CC2)cc1Cl,2%,-0.32
O=C1N(C2CCCCC2)CCC[C@@]12CCN(c1ncnc3[nH]cnc13)C2,-4%,0.53
Cc1noc(C)c1C(=O)NCC1CCN(Cc2nnc(-c3ccccc3)o2)CC1,12%,-1.49
CCn1ccnc(Oc2ccc(C)nc2)c1=O,-14%,1.59
COc1ccc(CN2CCc3ccccc3C2)cc1OC[C@@H](O)CN1CCCCC1,-3%,0.38
CCn1ccc(CN(C)Cc2nncn2CC)n1,-10%,1.02
COc1ccc2[nH]c3c(c2c1)CCN1C(=O)N([C@@H](C)C(=O)NC2CCCCC2C)C(=O)[C@]31C (stereo partly specified),-1%,0.17
O=c1ccc(-c2ccccc2)nn1C1CCCC1,-12%,1.59
CCCNS(=O)(=O)c1ccc(/C=C\c2onc(C)c2NC(C)=O)cc1,-20%,2.94
O=S(=O)(c1ccc2c(c1)CCO2)N1CC[C@H](c2noc(-c3ccco3)n2)C1,-7%,1.19
Cc1ccnc(OCC(=O)N2CCN(c3ccc(N(C)C)nn3)CC2)n1,-13%,1.14
O=C1C[C@H](NS(=O)(=O)c2cccs2)CN1c1ccc2c(c1)OCCO2,-2%,0.31
CCN(CCc1nccs1)C(=O)Nc1cccnc1OCC(F)F,-6%,0.81
CC[C@]1(C(=O)OC)N[C@@H](c2cccc(OC(F)F)c2)[C@H]2C(=O)N(C)C(=O)[C@H]21,-3%,0.44
O=C(Nc1ccc2c(c1)OCCCO2)N1CC2CC=CCC2C1 (stereo unspecified),0%,-0.01
CCN(C(=O)c1cc(C)n(-c2nccs2)c1C)c1nc(C)cs1,-2%,0.19
O=C(NCCCn1ccnc1)N1CCOC2CCCC21 (stereo unspecified),-7%,1.06
COc1c(-c2ccccc2)sc2nc(C)cc(C)[n+]12,1%,-0.08
NC(=O)c1ccc(-c2noc(C3CCC(F)(F)CC3)n2)cn1,-15%,1.62

SMILES,% Inhibition,Z score
O=C1C[C@H](COCc2ccccc2)c2c[nH]nc2N1,11%,-1.89
CCn1nc(CC(C)C)cc1-c1nc([C@H]2CCOC2)no1,-10%,1.58
CCC(C)C(CO)NC(=O)c1[nH]nc2c1CCc1cc(OC)ccc1-2 (stereo unspecified),-15%,1.91
O=C(c1ccc(-n2ccnc2-c2cccnc2)o1)N1CCOCC1,-5%,0.62
Cc1nn(-c2ncnc3[nH]cnc23)c2c1[C@@]1(CC(=O)N2)C(=O)N(Cc2cccc(OC(F)(F)F)c2)c2ccccc21,-9%,1.43
COCC(=O)N1CCCC(C(=O)N[C@@H]2CCCC[C@H]2NC(=O)c2ccccc2)C1 (stereo partly specified),-1%,0.16
CN(CC(=O)NC1(c2nnc(N)s2)CCCCC1)Cc1ccncc1,-2%,0.32
CCOC(=O)c1cc2n(n1)C[C@@](C)(C(=O)NCCC(C)C)N(c1ccc(C)c(C)c1)C2=O,-6%,0.75
Cc1ccc(O)c(C(=O)N2CC[C@H](N3CCN(C)CC3)[C@H](CCCO)C2)c1,-20%,2.03
CCN(CC)[C@H](CNc1nnc(C)c(C)c1C#N)CC(C)C,1%,-0.12
Cc1ccccc1OCC(=O)N(CC(F)(F)F)C1CCOCC1,-11%,1.26
Cc1[nH]c2ccccc2c1C1CCN(C(=O)CCCn2cncn2)CC1,-4%,0.55
CCc1csc(CNC(=O)c2ccc(N(C)C[C@H]3CCCCO3)nc2)n1,-3%,0.4
NS(=O)(=O)c1ccc(CCNC(=O)NC2CC2)cc1,-6%,1.26
O=C(CNCC1CC1)N1CCc2ccccc2C1,-31%,3.59
O=C(c1ccc(-c2nc(C3CC3)n[nH]2)cc1)N1CCOC[C@@H]1CCO,-1%,0.24
C[C@H](CCC(=O)N(C)Cc1ccccc1)[C@H]1CC[C@H]2[C@@H]3CC[C@@H]4C[C@H](O)CC[C@]4(C)[C@H]3C[C@H](O)[C@]12C,-4%,0.57
Cc1cscc1-c1noc([C@@H]2COCCO2)n1,-1%,0.15
OC[C@H]1CN(Cc2ccc(F)cn2)CCN1Cc1ccc(F)cn1,-9%,1.45
COC(=O)C1(N(C)C(=O)[C@H](C)S(=O)(=O)C(C)C)CCCC1,3%,-0.32

# — ChEMBL document CHEMBL4888484, “Replenishing the malaria drug discovery pipeline: Screening and hit evaluation of the MMV Hit Generation Library 1 (HGL1) against asexual blood stage Plasmodium falciparum ,using a nano luciferase reporter read-out” (2022)
